According to PubChem BioAssay AID624417 (National Center for Advancing Translational Sciences (NCATS), 2012):
The whole screen tested about 410,000 compounds, of which about 6,400 (1.6%) were called active. Inconclusive results, whose numbers are uncertain, are shown with a selection of clear calls. Calls follow the shape of the dose curve; as a rule, active = well fitted inhibition curve with a large enough effect; inconclusive = small, poorly fitted or top-dose-only effect; inactive = no such curve, though single readings can be large or run the other way. Potencies beside an inconclusive call are fits to weak or partial responses and may not hold up.

molecular target: Glucagon-like peptide 1 receptor (Homo sapiens) (UniProt P43220); test: qHTS of GLP-1 Receptor Inverse Agonists (Inhibition Mode); details: HEK293 GLP-1R CRE-luciferase, luminescence, 24 h, GLP-1R form is constitutively active; activity change, negative = inhibition: at 38.3 µM (top of the series) unless noted; also: nearly all actives have a fitted effect of over 55% in size
How it was run: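 Inverse agonism was detected as reduced cAMP-driven luciferase luminescence after 24 h compound treatment. The cells were HEK293 clones expressing constitutively active human GLP-1R with the reporter. Reporter-only and GPR119 cell lines served as counterscreen controls.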
% is scaled to controls: 0 for no effect and ±100 for the full control effect; potency is read from the fitted curve at half-maximal effect; tags tell the direction and shape of the fitted curve.

UniProt P43220, sequence (P43220 whole entry, looked up): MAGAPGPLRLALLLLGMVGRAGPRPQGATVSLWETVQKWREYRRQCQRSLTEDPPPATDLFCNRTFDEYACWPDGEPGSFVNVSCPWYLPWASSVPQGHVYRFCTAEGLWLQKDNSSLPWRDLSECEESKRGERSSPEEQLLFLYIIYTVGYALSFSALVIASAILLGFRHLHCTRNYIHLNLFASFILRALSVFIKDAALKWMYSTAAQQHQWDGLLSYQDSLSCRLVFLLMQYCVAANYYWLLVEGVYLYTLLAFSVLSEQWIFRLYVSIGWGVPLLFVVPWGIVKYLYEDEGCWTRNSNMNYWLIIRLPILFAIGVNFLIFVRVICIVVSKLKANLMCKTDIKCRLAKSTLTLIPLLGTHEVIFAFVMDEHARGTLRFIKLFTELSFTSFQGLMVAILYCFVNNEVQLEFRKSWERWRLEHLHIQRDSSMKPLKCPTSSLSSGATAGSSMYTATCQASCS

Potency, inconclusive:
O=C(NNC(=O)c1cccc2ccccc12)c1ccc(Cl)cc1Cl 28.2 µM [inhibitor, single point]
C#CCOCCOCCOCCNc1nc(N2CCN(C(=O)CCCCCCCCCCNC(=O)[C@H](CCCCN)n3cc(C[C@@H](C)CC)nn3)CC2)nc(N2CCN(C(=O)CCCCCCCCCCNC(=O)[C@H](CCCN=C(N)N)n3cc(C[C@@H](C)CC)nn3)CC2)n1 12.6 µM [inhibitor, single point]
CCn1c(=O)n(CC)c2cc(N3CCCC3)c(NC(=O)c3ccccc3OC)cc21 31.6 µM [inhibitor, partial curve, poor fit]
Cc1cccc(-c2nnc3sc(-c4ccccc4C)nn23)c1 20 µM [inhibitor, single point]
COc1ccc2c(c1)-c1nc(NC(=O)c3ccccc3F)sc1CC2 28.2 µM [inhibitor, single point]
CCCN(CC(=O)NC(=O)NC1CCCCC1)CC(=O)Nc1cc(Cl)ccc1Cl 8.91 µM [inhibitor, partial curve, poor fit]
O=C1NC2c3c(Cl)sc(Cl)c3C(=O)C2O1 (configuration not stated) 28.2 µM [inhibitor, single point]
Cc1nc(N2CCN(C(=O)c3ccc(Cl)cc3)CC2)c(C#N)c2c1COC(C)(C)C2 15.8 µM [inhibitor, single point]
CC1CCN(Cc2ccc(NC(=O)C3CCN(c4nnc(-n5cccc5)s4)CC3)cc2)CC1 28.2 µM [inhibitor, single point]
O=C(O)CCCCCN1C(=O)/C(=C/c2cn(-c3ccccc3)nc2-c2cccs2)SC1=S 22.4 µM [inhibitor, single point]
COC(=O)[C@@H](Cc1c[nH]c2ccccc12)NC(=O)CCC(=O)c1ccc(Br)cc1 28.2 µM [inhibitor, single point]
Clc1ccccc1Cc1noc(CN2CCCCC2c2ccccn2)n1 (configuration not stated) 28.2 µM [inhibitor, single point]
Cc1nc(NC(=O)c2cccc(Cl)c2)sc1C(=O)N1CCCCC1 28.2 µM [inhibitor, single point]
COc1ccc(S(=O)(=O)Nc2cccc(-c3ccc(N4CCCCCC4)nn3)c2)cc1 28.2 µM [inhibitor, single point]
COc1ccc([C@H]2CC(=O)C=C(c3c(C)cc(C)cc3C)C2)cc1 11.2 µM [inhibitor, single point]
O=C(NC1CCc2ccccc21)c1cc(COc2cncc(Cl)c2)on1 (configuration not stated) 10 µM [inhibitor, partial curve, poor fit]
COc1ccc(CN(CCC(c2ccccc2)c2ccc(OC(C)C)cc2)C(=O)CCl)cc1OC (configuration not stated) 22.4 µM [inhibitor, partial curve, poor fit]
O=C(c1cccc(C(F)(F)F)c1)N1CCOC12CCN(c1ncc(C(F)(F)F)cc1Cl)CC2 2.82 µM [inhibitor, partial curve, poor fit]
Cc1ccccc1C(=O)Nc1ccccc1N1CCN(C(=O)c2ccccc2)CC1 22.4 µM [inhibitor, single point]
O=S(=O)(c1ccccc1)N1CCN(Cc2c(O)ccc3ccccc23)CC1 2.82 µM [inhibitor, partial curve, poor fit]
Cc1ccccc1C(=O)Nc1ccc(S(=O)(=O)N2CC(C)OC(C)C2)cc1 (configuration not stated) 28.2 µM [inhibitor, single point]
C/C(=N\NC(=S)Nc1cc(S(=O)(=O)N2CCOCC2)ccc1Cl)c1ccccc1F 2.24 µM [inhibitor, partial curve, poor fit]
CC(C)(C)c1ccc(C(=O)NCC(=O)N2CCCCCC2)cc1 12.6 µM [inhibitor, single point]
CCOC(=O)C1(Cc2cccc(OC)c2)CCN(Cc2csc(C(C)=O)c2)CC1 11.2 µM [inhibitor, partial curve, poor fit]
Cc1ccc(S(=O)(=O)c2c(C)nn(C(C)(C)C)c2OC(=O)C(C)(C)C)cc1 4.47 µM [inhibitor, partial curve, poor fit]
Cc1cccc(OCC(=O)N(Cc2nnc(-c3ccccc3Cl)o2)C2CC2)c1 11.2 µM [inhibitor, partial curve, poor fit]
Cc1ccc(Cc2c(-c3cccc(Cl)c3)nc3ccc(C)cn23)cc1 28.2 µM [inhibitor, single point]
CC(C)(C)C(=O)Nc1cccc(-c2nnc(-c3cccc(NC(=O)C(C)(C)C)c3)o2)c1 28.2 µM [inhibitor, single point]
CCn1c(/C=C/c2ccccc2F)nc2ccccc2c1=O 11.2 µM [inhibitor, single point]
O=C(NCCc1ccccc1)c1cnc2ccccn2c1=O 28.2 µM [inhibitor, single point]
c1ccc(-c2csc(Nc3ccc4c(c3)OCCO4)n2)cc1 11.2 µM [inhibitor, single point]
CC(=O)c1cccc(CN2CCCC(C(=O)c3ccc4c(c3)OCO4)C2)c1 (configuration not stated) 7.94 µM [inhibitor, partial curve, poor fit]
C/C=C(/C)C(=O)Nc1cccc(C2=NOC3(C2)C[C@@H](C(N)=O)N(C(=O)CC(c2ccccc2)c2ccccc2)C3)c1 (some centres not stated) 28.2 µM [inhibitor, single point]
COc1ccc(NC(=O)c2cccc3c(-c4ccc(OC)cc4C)coc23)cc1 28.2 µM [inhibitor, single point]
COc1ccc(CCNC(=O)c2ccc(N(C)S(=O)(=O)c3ccc(C)cc3)cc2)cc1 15.8 µM [inhibitor, partial curve, poor fit]
O=S(=O)(N1CCCCC1)n1c(Cc2ccccc2)nc2ccccc21 7.94 µM [inhibitor, partial curve, poor fit]
CCN(CC)S(=O)(=O)c1cc(NC(=O)C(C)N2CCN(Cc3ccc4c(c3)OCO4)CC2)ccc1C (configuration not stated) 7.94 µM [inhibitor, partial curve, poor fit]
CCOc1ccccc1CNC(=O)c1oc2ccc3c(c2c1C)C(=O)CC(C)(C)O3 17.8 µM [inhibitor, single point]
COc1cccc(NC(=O)CN(C)C(=O)c2ccc(-c3ccc(Cl)cc3)o2)c1 28.2 µM [inhibitor, single point]
CCCn1c(NC(=O)c2ccc(C)cc2)nc2ccccc21 12.6 µM [inhibitor, single point]
COc1ccc(C(CNC(=O)c2ccc(-c3ccccc3Cl)o2)N2CCOCC2)cc1 (configuration not stated) 10 µM [inhibitor, single point]
Cc1cccc(CN2CCN(C(c3ccccc3)c3ccc(Cl)cc3)CC2)c1 (configuration not stated) 28.2 µM [inhibitor, single point]
COCCn1nnnc1C(c1cc2cc(OC)ccc2[nH]c1=O)N1CCC(Cc2ccccc2)CC1 (configuration not stated) 10 µM [inhibitor, partial curve, poor fit]
COc1cccc(NC(=O)CN(C)C(=O)c2cc3ccccc3cc2OC)c1 17.8 µM [inhibitor, single point]

Potency, active:
CCSc1nsc(NC(=O)Nc2ccccc2OC)n1 11.2 µM
Cc1ccc(C(C)(C)C)cc1S(=O)(=O)Nc1nc2ccccc2nc1Cl 10 µM
Cc1ccc(NS(=O)(=O)c2cccc(C(=O)NCC(c3ccc(F)cc3)N3CCOCC3)c2)cc1 (configuration not stated) 10 µM
Cc1cccc(C(=O)OCC(=O)c2c(N)n(CC(C)C)c(=O)n(C)c2=O)c1O 10 µM
CC(C)COCc1ccc(O)c2ncccc12 3.98 µM
Cc1nn(Cc2ccc(Cl)c(Cl)c2)c(C)c1NC(=O)c1cn(-c2ccccc2)nc1-c1ccccc1 10 µM

Activity change, negative = inhibition, inconclusive:
Cc1ccc(C(=O)OCC(=O)NC2CCCC2)cc1C -34.3% [inhibitor]

Activity change, negative = inhibition, inactive:
COc1cccc(NC(=O)c2ccccc2NC(=O)c2ccncc2)c1 7.95%
CCn1c(=O)cc(OCC(=O)NCc2ccccc2Cl)c2ccccc21 2.52%
O=C(NCc1ccccn1)NC12CC3CC(CC(C3)C1)C2 0%
Cn1c2ccc(F)cc2c2nnc(SCC(=O)Nc3cccc(O)c3)nc21 249%
COc1cc(CN(C(=O)c2ccc(Cl)cc2)C2CCS(=O)(=O)C2)cc(OC)c1OC (configuration not stated) 17.8%
Cc1ccc2oc(-c3ccc(C)c(NC(=O)c4ccc(-c5ccccc5[N+](=O)[O-])o4)c3)nc2c1 7.24%
Cc1ccc(NC(c2nnc(-c3ccccc3)o2)c2ccccc2F)c(Cl)c1 (configuration not stated) -18.8%
COC(=O)Cc1c(O)ccn(CCc2c[nH]c3ccccc23)c1=O 15.5%
CN(Cc1ccccc1)C(=O)c1ccc(NC(=O)Cc2ccc(NC(=O)C3CCN(C(=O)CCc4ccccc4)CC3)cc2)cc1 -31%
O=C(OCc1c(F)cccc1Cl)c1cnc(Cl)c(Cl)c1 8.11%
Cn1c(NC(=O)c2cccs2)cc(=O)n(C)c1=O -4.19%
